Source: PubChem BioAssay AID493208 (National Center for Advancing Translational Sciences (NCATS), 2011)
Hit rate of the full screen: of about 44,000 compounds, about 340 (0.77%) were called active. Roughly 5% stayed inconclusive and do not appear here. Calls follow the shape of the dose curve; as a rule, active = well fitted inhibition curve with a large enough effect; inconclusive = small, poorly fitted or top-dose-only effect; inactive = flat fitted curve, though single readings scatter. This is one part of the list.

experiment: Acumen qHTS Assay for Inhibitors of the mTORC1 Signaling Pathway in MEF (Tsc2-/-, p53-/-) Cells: Sytravon; conditions: phospho-rpS6 immunofluorescence/PI, 24 h; series mostly up to 38.3 µM; activity change, negative = inhibition: at the top concentration; also: nearly all actives have a fitted effect of over 50% in size
Procedure, shortened: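 Read-out: phospho-S6 Alexa-488 intensity over PI intensity per well, scored as % active cells using thresholds from rapamycin (7.5 nM) and DMSO controls. Tsc2-/-, p53-/- MEFs exposed to compound for 24 h; PI cell count recorded as viability.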

Activity change, negative = inhibition, inactive:
Cc1ccc(NC(=O)CSc2nc(-c3ccc(F)cc3)cc(C(F)(F)F)c2C#N)cc1 4.28%, CCNC(=O)CC1C(=O)N(c2ccccc2)C(=O)N1Cc1ccc(F)cc1 (stereo not given) -12.1%, COc1ccc(NC(=O)Cn2c(=O)oc3cc(S(=O)(=O)NC(C)C)ccc32)cc1OC -5.44%, CCOc1ccc(C(=O)c2cn(CC(=O)Nc3cc(OC)cc(OC)c3)c3ccc(F)cc3c2=O)cc1 -2.18%, Cc1ccccc1Cn1c(CCCNC(=O)C2CCCCC2)nc2ccccc21 -4.62%, Cc1cccc(OCc2nnc(SCC(=O)Nc3ccc(C)cc3C)o2)c1 5.38%, Cc1ccccc1Cn1c(SCc2ccc(C(=O)NCc3cccs3)cc2)nc2ccncc21 -2.59%, CCCSCCCNC(=O)C1CCN(C(=O)c2cc3sccc3n2C)CC1 0.943%, COc1ccccc1N1CCN(S(=O)(=O)c2ccc3c(c2)oc(=O)n3C)CC1 -11.6%, Cc1nnc(N2CCC(C(=O)NC(C)C)CC2)c2nn(-c3ccc(Cl)cc3)c(C)c12 1.89%, CCC1CCCCN1S(=O)(=O)c1ccc(NC(=O)c2cc(=O)c3ccccc3o2)cc1 (stereo not given) 5.62%, CCCCOc1ccc(C2c3c(-c4ccccc4O)n[nH]c3C(=O)N2Cc2ccncc2)cc1OC (stereo not given) -18.8%, O=C(Nc1nc(-c2ccc(Br)cc2)ns1)c1ccc(F)cc1 -0.953%, O=S(=O)(c1ccc(-n2cnnn2)cc1)N1CCN(c2ccccc2F)CC1 -9.84%, CC(=O)c1cccc(NC(=O)Cn2c(SCC(=O)Nc3ccc(F)cc3)nc3ccccc32)c1 6.82%, CCOc1ccc(-n2c(C)nc3c(cnn3-c3ccc(C)cc3)c2=O)cc1 0.221%, COc1ccc(-c2c(C#N)c(SCC(=O)Nc3ccccc3C)nc(C)c2C(=O)Nc2ccccc2)cc1OC 5.71%, COCCCNC(=O)CSc1nc(-c2cccc(F)c2)[nH]c1-c1ccccc1 2.63%, O=C(CN1CCN(Cc2ccccc2Cl)C1=O)NCc1ccccc1Cl 1.05%, COc1ccc(CCN2C(=O)N(c3ccc(F)cc3)C(=O)C2CC(=O)Nc2ccccc2)cc1 (stereo not given) -13.4%, N#C/C(=C\c1ccc(Cl)cc1)C(=O)NCC1CCCO1 (stereo not given) -7.26%, Cn1cc(S(=O)(=O)c2ccccc2)c(=O)c2cc(F)c(N3CCOCC3)cc21 -5.31%, CCc1cnc2c(c1SCC(=O)Nc1ccc(Cl)cc1)c(=O)n(C)c(=O)n2C -7.49%, CCOc1ccc(NC(=O)Cc2coc3ccc(C)cc23)cc1 -19.7%, COc1ccc(-c2cc(C(F)F)n3ncc(C(=O)Nc4cc(OC)ccc4OC)c3n2)cc1 0.987%, COc1ccccc1CNC(=O)Cn1c(=O)oc2cc(S(=O)(=O)N3CCC(C)CC3)ccc21 -5.13%, COc1ccccc1NC(=O)CSc1ccc(-c2sc(C)nc2C)nn1 -5.98%, Cc1cccc(-c2nc(CCNC(=O)Cc3ccc(F)cc3)cs2)c1 -19.6%, CCC(Nc1ccc(-c2nc(-c3ccco3)no2)cc1[N+](=O)[O-])c1ccccc1 (stereo not given) -15.4%, COc1ccc(C2c3cccn3CCN2S(=O)(=O)c2ccccc2[N+](=O)[O-])cc1OC (stereo not given) -0.378%, CCc1ccc2occ(CC(=O)Nc3c(C(=O)Nc4ccc(OC)cc4)oc4ccccc34)c2c1 -1.97%, O=C(NCc1ccccc1)c1nnc(Cc2cccc(F)c2)o1 -0.213%, Cc1cccn2cc(-c3cccc(NS(=O)(=O)c4ccc(Cl)c(Cl)c4)c3)nc12 -1.28%, CCc1ccc(CNC(=O)CCc2c(C)nn(-c3ccc(N4CCCCC4)nn3)c2C)cc1 -2.28%, O=C(NCC(c1ccc2c(c1)OCO2)N1CCOCC1)c1ccccc1F (stereo not given) -1.69%, CC(CNC(=O)Cn1ccc2cc(S(=O)(=O)N3CCCCC3)ccc21)c1ccccc1 (stereo not given) -18.8%, Cc1cc2nn(-c3ccc(F)cc3)nc2cc1NC(=O)c1ccc(OC(C)C)cc1 3.16%, CCOc1ccc(CCNC(=O)C2CCN(C(=O)N3CC(CC)Oc4ccc(C)cc43)CC2)cc1 (stereo not given) 0.597%, Cc1ccc2nc(Cl)c3cc(C(=O)N(C)C4CCCCC4)sc3c2c1 -7.09%, COc1cccc(Cn2c(=O)n(-c3cccc(Cl)c3C)c(=O)c3c4c(sc32)CN(C(C)=O)CC4)c1 -3.32%, Cc1ccc(NC(=O)CSc2nc3ccc(NC(=O)c4cccs4)cc3s2)c(C)c1 0.0346%, CCOC(=O)c1c(C)oc2nc(C)nc(NCC3CCN(Cc4cccc(C)c4)CC3)c12 1.1%, CC1=C(c2ccc(C)c(C)c2)S(=O)(=O)N=C1N1CCN(c2cccc(C(F)(F)F)c2)CC1 -10.2%, CCOc1ccc(-n2c(=O)c3c4c(sc3n(Cc3cccc(Cl)c3)c2=O)CCCC4)cc1 -12.1%, Cc1ccc(NC(=O)Cn2c(=O)n(-c3ccc(CC(=O)NCC4CCCO4)cc3)c(=O)c3ccccc32)cc1 (stereo not given) 2.28%, O=C(NCC(c1ccc2c(c1)OCO2)N1CCOCC1)c1ccc(F)cc1 (stereo not given) -10.3%, Cc1ccc(/C=C(\C#N)c2nc(-c3cc4c(ccc5ccccc54)oc3=O)cs2)cc1 3.06%, CCCC(=O)N(c1ccc2oc(-c3ccccc3)c(C(=O)OCC)c2c1)S(=O)(=O)c1ccc(C)cc1 4.93%, COCCCNC(=O)Cn1c(=O)n(CCCC(=O)NCc2ccc(C)cc2)c(=O)c2ccccc21 6.16%, CCCCN1CC(c2nc3ccccc3n2CCCCOc2c(C)cccc2C)CC1=O (stereo not given) 4.23%, CCOc1ccc(Sc2cc(C(=O)NCCc3ccc(OC)c(OC)c3)c3ccccc3n2)cc1 6.77%, CCn1cc(C(=O)N2CCN(c3ccccc3OC)CC2)c(=O)c2cc(S(=O)(=O)N3CCCCC3)ccc21 0.224%, COc1ccc(-c2nn(-c3ccccc3)cc2C(=O)Nc2ccccc2OC)cc1 -3.46%, Cc1cccc(C(=O)Nc2ccccc2-c2nc(-c3ccccc3)no2)c1 -9.25%, CC(C)CN(c1ccccc1)S(=O)(=O)c1nnc(NC(=O)c2ccco2)s1 -3.33%, Cn1cc(C(=O)NCc2ccc(F)cc2)c(=O)c2cc(S(=O)(=O)N3CCCCC3)ccc21 0.505%, O=C(CCSCc1ccccc1F)N1CCN(c2ccc(F)cc2)CC1 9.55%, COc1ccc(NC(=O)N2CCc3c(sc4c3CCCC4)C2c2ccc(F)cc2)cc1 (stereo not given) 19.9%, COc1cc(OC)c(NC(=O)c2oc3ccc4c(c3c2C)C(=O)CC(C)(C)O4)cc1Cl 0.203%, CCOc1ccccc1NC(=O)Cn1c(=O)n(Cc2ccc(C(=O)NCCCOC)cc2)c(=O)c2ccccc21 -16.6%, CCn1c(=O)c2cc(C(=O)N(C)c3cc(C)ccc3C)sc2c2ccccc21 2.86%, O=C(O)c1cccc(NC(=O)c2cccc(S(=O)(=O)Nc3cccc(C(=O)O)c3)c2)c1 1.23%, CC(C)c1ccc(Nc2nc3ccc(C(=O)c4ccccc4)cc3n3cnnc23)cc1 -2.53%, CCN(C(=O)c1sc2nc3n(c(=O)c2c1C)CCCCC3)c1ccccc1F 6.37%, CCc1ccc(CNC(=O)c2cc3c(=O)oc4ccc(C)cc4c3s2)cc1 -6.07%, Cc1ccc(NC(=O)Nc2nnc(N3CCCCC3)s2)c(C)c1 -14.3%, COc1ccc(NC(=O)c2ccc3snnc3c2)cc1OC -0.392%, COc1cc(OC)cc(-n2c(=O)[nH]c3cc(C(=O)NCCc4ccc(C)cc4)ccc3c2=O)c1 -11.9%, CN(C)C(=O)c1ccc(S(=O)(=O)NCc2ccccc2Cl)s1 0%, COc1ccc(-n2cc3c(c2-c2cccc(Br)c2)c(=O)n(C)c(=O)n3C)cc1OC -9.93%, COc1cccc(NC(=O)Cn2c(=O)n(Cc3ccccc3)c(=O)c3c4c(sc32)CN(C(C)=O)CC4)c1 -2.87%, COc1ccc(-c2cc(C(F)(F)F)nc(SCC(=O)NCc3ccc(F)cc3)n2)cc1 -2.43%, CCCCc1ccc(NC(=O)Cn2cnc3c2c(=O)n(C)c(=O)n3C)cc1 10.6%, COC(=O)c1ccccc1NC(=O)c1nc(SCc2ccccc2C)ncc1Cl -7.76%, Cc1c(CNCCCc2ccccc2)c(C(=O)O)c(C)n1Cc1ccc(Cl)cc1 5%, O=c1c2oc3ccccc3c2n(Cc2ccccc2F)c(=O)n1Cc1ccco1 3.1%, Cc1ccc(Cn2cc(CCC(=O)NC3CCCCC3)c3ccccc32)cc1 -10.4%, COc1ccc(S(=O)(=O)NC2(C(F)(F)F)NC(=O)N(CCc3ccccc3)C2=O)cc1 (stereo not given) -5.73%, CCCCCSc1nnc2c(n1)OC(c1ccc(C)s1)N(C(C)=O)c1ccccc1-2 (stereo not given) 4.21%, Cc1cccc(N2CCN(C(=O)Nc3ccc(F)cc3)CC2C)c1 (stereo not given) -6.8%, Cc1ccccc1NC(=O)Nc1nnc(N(C)Cc2ccccc2)s1 -3.16%, Cc1c(Cl)cccc1N1CC(c2nc3ccccc3n2Cc2ccccc2F)CC1=O (stereo not given) -16.7%, Oc1ccccc1-c1nc(/C=C/c2ccc(F)cc2)no1 7.06%, COc1ccccc1NC(=O)CN1C(=O)C(c2ccc(F)cc2)=NC1(C)C -0.396%, Cc1cccc(NC(=O)Cn2c(=O)n(Cc3ccc4c(c3)OCO4)c(=O)c3ccccc32)c1 4.09%, CCS(=O)(=O)c1c(Nc2ccc(F)c(Cl)c2)sc(C(=O)c2ccccc2)c1N 1.38%, CCOc1ccc(-c2ccc(NS(=O)(=O)c3cc(C)ccc3OC)cc2)nn1 0.101%, Cc1ccc(N2CCN(C(=O)c3nn(C)c4c3CS(=O)(=O)c3ccccc3-4)CC2C)cc1 (stereo not given) 4.12%, O=C(CC1N=C2c3ccccc3N=C(SCc3ccccc3Cl)N2C1=O)NC1CCCCC1 (stereo not given) 0.0972%, COc1ccc(Cl)cc1-n1c(CCC(=O)O)ccc1-c1ccc(C)cc1 -0.474%, Cc1cc(=O)[nH]c(SCC(=O)N2CCN(c3ccccc3)CC2)n1 3.18%, COc1ccc(-c2nc3ccc(C(=O)NCc4ccc(C)cc4)cc3nc2-c2ccc(OC)cc2)cc1 5.7%, CC1CCN(S(=O)(=O)c2ccc3c(c2)N(CC(=O)Nc2ccc(F)c(Cl)c2)C(=O)CO3)CC1 -16.8%, COc1ccc(Br)cc1CNC(=O)CCSCc1ccc(Cl)cc1 0%, CCC(=O)N1CCc2cc(CNS(=O)(=O)c3cc(Cl)ccc3OC)ccc21 11.9%
